This is one part of the list. Values were computed here from the reads of four pooled replicates and scatter widely.

This test deals with T1, Pho4 (S. cerevisiae) (UniProt P07270).
T1 sequence: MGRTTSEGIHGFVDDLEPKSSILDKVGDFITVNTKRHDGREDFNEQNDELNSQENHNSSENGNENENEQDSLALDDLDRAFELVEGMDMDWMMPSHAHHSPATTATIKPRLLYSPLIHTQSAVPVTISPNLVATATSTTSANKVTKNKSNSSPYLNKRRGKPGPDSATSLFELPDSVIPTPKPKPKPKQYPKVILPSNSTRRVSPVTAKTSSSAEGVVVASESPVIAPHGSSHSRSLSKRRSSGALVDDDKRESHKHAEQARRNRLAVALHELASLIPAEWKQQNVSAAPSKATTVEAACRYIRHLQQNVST
Description: relative binding free energy (BET-seq); higher = weaker binding. The settings on record: reference: library average.
Consider AATCACACGTGTGGGG, for which the “relative binding free energy” value turned out to be 0.09 kcal/mol.

As for TGCCGCACGTGAGGTG, the “relative binding free energy” value came out at 0.1 kcal/mol.

For GGCAGCACGTGATATG, the “relative binding free energy” value was 0.13 kcal/mol.

Consider GGCATCACGTGGAGTT, for which the “relative binding free energy” value is 0.22 kcal/mol.

Regarding GGGGACACGTGCGTGG, the “relative binding free energy” value is -0.07 kcal/mol.

For the sequence CGTAGCACGTGCTGGG, the “relative binding free energy” value was -0.31 kcal/mol.

On to TGTTACACGTGTGTGC, for which the “relative binding free energy” value came to 0.09 kcal/mol.

As to TGGTACACGTGCAGTT, the “relative binding free energy” value worked out at 0.07 kcal/mol.

With GTTCACACGTGTTGTA, the “relative binding free energy” value was determined as 0.15 kcal/mol.

In the case of TTTTACACGTGTGATC, the “relative binding free energy” value stood at 0.14 kcal/mol.

As for CGGTTCACGTGCATGT, the “relative binding free energy” value came out at 0.2 kcal/mol.

Take GGGCGCACGTGTTGGG: the “relative binding free energy” value is 0.01 kcal/mol.

GGAGGCACGTGAAAAG: the “relative binding free energy” value was determined as 0.16 kcal/mol.

For CTATGCACGTGAGGTT, the “relative binding free energy” value is 0.32 kcal/mol.

Consider GGTTCCACGTGCTGGG, for which the “relative binding free energy” value was 0.1 kcal/mol.

For the sequence TATGGCACGTGTTTCA, the “relative binding free energy” value was -0.12 kcal/mol.

Regarding TGAATCACGTGATGTG, the “relative binding free energy” value came to 0.2 kcal/mol.

Consider CGGTGCACGTGTAGCG, for which the “relative binding free energy” value was -0.06 kcal/mol.

Turning to TTAGTCACGTGGTACG, the “relative binding free energy” value turned out to be 0.11 kcal/mol.

In the case of TATAACACGTGTTGTT, the “relative binding free energy” value was -0.03 kcal/mol.

GTGCGCACGTGCTGGT: the “relative binding free energy” value is -0.32 kcal/mol.

Regarding TGTAGCACGTGCGGTA, the “relative binding free energy” value is -0.08 kcal/mol.

For the sequence CGTTGCACGTGGGGTA, the “relative binding free energy” value is -0.1 kcal/mol.

Regarding TGTATCACGTGATTGT, the “relative binding free energy” value came out at 0.33 kcal/mol.

Turning to GTGTGCACGTGGGCAT, the “relative binding free energy” value is -0.08 kcal/mol.

For the sequence AGGGTCACGTGGGGGT, the “relative binding free energy” value was -0.12 kcal/mol.

On to GGGAACACGTGGGATA, for which the “relative binding free energy” value was found to be 0.04 kcal/mol.

Take ATCGTCACGTGTAGGC: the “relative binding free energy” value stood at 0.28 kcal/mol.

On to AATTTCACGTGAGATA, for which the “relative binding free energy” value turned out to be 0.51 kcal/mol.

In the case of TGTGTCACGTGAGTCT, the “relative binding free energy” value was 0.36 kcal/mol.

As to AGGCGCACGTGTGGAT, the “relative binding free energy” value was -0.1 kcal/mol.

As to AACTTCACGTGTTTAG, the “relative binding free energy” value worked out at 0.25 kcal/mol.

On to TTGGACACGTGGGATC, for which the “relative binding free energy” value is -0.05 kcal/mol.

Turning to GTTGGCACGTGCCGTG, the “relative binding free energy” value was -0.1 kcal/mol.

In the case of CGCTGCACGTGAGGTG, the “relative binding free energy” value amounted to 0.23 kcal/mol.

In the case of TTGTTCACGTGCCATT, the “relative binding free energy” value was determined as 0.29 kcal/mol.

For the sequence GCTTTCACGTGATGAG, the “relative binding free energy” value came out at 0.39 kcal/mol.

Take CAGGGCACGTGGGCTG: the “relative binding free energy” value was -0.33 kcal/mol.

For the sequence AAGGGCACGTGGTCAG, the “relative binding free energy” value is -0.15 kcal/mol.

For TTGTACACGTGTATGC, the “relative binding free energy” value is 0.14 kcal/mol.

TGGCACACGTGTTGGG: the “relative binding free energy” value was 0.15 kcal/mol.

Regarding TTGCTCACGTGGATTG, the “relative binding free energy” value was found to be 0.16 kcal/mol.

As to GGACGCACGTGTGGGG, the “relative binding free energy” value is -0.11 kcal/mol.

In the case of GGGGACACGTGGTCAA, the “relative binding free energy” value was -0.03 kcal/mol.

With GGTGGCACGTGATAAA, the “relative binding free energy” value is -0.03 kcal/mol.

Turning to TGTGACACGTGGTATG, the “relative binding free energy” value is -0.09 kcal/mol.

With ATACTCACGTGGTATT, the “relative binding free energy” value amounted to 0.19 kcal/mol.

Regarding ATGCACACGTGGAGGG, the “relative binding free energy” value was 0.1 kcal/mol.

ATTGGCACGTGGCCTG: the “relative binding free energy” value was -0.15 kcal/mol.

Regarding CTGAGCACGTGAGGGG, the “relative binding free energy” value came to 0.11 kcal/mol.

For the sequence AGAGACACGTGATTTG, the “relative binding free energy” value amounted to 0.06 kcal/mol.

Consider CTGTGCACGTGTAAGT, for which the “relative binding free energy” value came out at 0.15 kcal/mol.

Regarding ATTTGCACGTGAAAAG, the “relative binding free energy” value stood at 0.08 kcal/mol.

For GGTGTCACGTGAGCTT, the “relative binding free energy” value is 0.23 kcal/mol.

TGTAGCACGTGCATAG: the “relative binding free energy” value was -0.09 kcal/mol.

As for GAGGTCACGTGAAGGA, the “relative binding free energy” value was 0.35 kcal/mol.

With GGGTACACGTGCGTTT, the “relative binding free energy” value came out at 0.09 kcal/mol.

As to GGCGACACGTGTAAGG, the “relative binding free energy” value is 0.26 kcal/mol.

For the sequence AGGGACACGTGAGTTT, the “relative binding free energy” value was determined as 0.47 kcal/mol.

On to TTTTTCACGTGTAATC, for which the “relative binding free energy” value was 0.4 kcal/mol.

With TCGGCCACGTGGGCAG, the “relative binding free energy” value was determined as 0 kcal/mol.

On to GGGATCACGTGAAGTG, for which the “relative binding free energy” value worked out at 0.37 kcal/mol.

As for TTAATCACGTGGATGC, the “relative binding free energy” value stood at 0.11 kcal/mol.

As to ATCGACACGTGGGGTG, the “relative binding free energy” value turned out to be 0.02 kcal/mol.

Turning to TGGATCACGTGGGTGC, the “relative binding free energy” value was 0.13 kcal/mol.

Take TAAGGCACGTGACGTA: the “relative binding free energy” value was -0.07 kcal/mol.

Turning to TTAATCACGTGGAGCG, the “relative binding free energy” value is 0.15 kcal/mol.

GGTGACACGTGGCTTT: the “relative binding free energy” value was found to be 0.03 kcal/mol.

With TGGGGCACGTGACGGT, the “relative binding free energy” value is 0.01 kcal/mol.

As to TGGTACACGTGGCAGT, the “relative binding free energy” value was 0.05 kcal/mol.

With ACGATCACGTGAGGGG, the “relative binding free energy” value worked out at 0.13 kcal/mol.

As to AGGTACACGTGTAGGT, the “relative binding free energy” value turned out to be 0.19 kcal/mol.

Turning to GTTTGCACGTGCATAG, the “relative binding free energy” value was -0.09 kcal/mol.

For GAAAGCACGTGGGGTG, the “relative binding free energy” value is -0.19 kcal/mol.

For ATAGGCACGTGTTTAC, the “relative binding free energy” value is -0.13 kcal/mol.

On to GGGGCCACGTGGGCAA, for which the “relative binding free energy” value is -0.11 kcal/mol.

For GTAGTCACGTGATGTA, the “relative binding free energy” value came to 0.17 kcal/mol.

On to GGGTTCACGTGCAGTT, for which the “relative binding free energy” value stood at 0.31 kcal/mol.

As for CTTGTCACGTGTGTCG, the “relative binding free energy” value is 0.01 kcal/mol.

Take AGAGTCACGTGGCTGG: the “relative binding free energy” value is -0.1 kcal/mol.

For the sequence GAAGGCACGTGTTTGT, the “relative binding free energy” value is -0.2 kcal/mol.

In the case of TCAGGCACGTGTTCGG, the “relative binding free energy” value is -0.11 kcal/mol.

For the sequence GATGGCACGTGGATTA, the “relative binding free energy” value was found to be 0.06 kcal/mol.

In the case of TTAGGCACGTGGCTAG, the “relative binding free energy” value is -0.08 kcal/mol.

On to TCTGGCACGTGGGGCA, for which the “relative binding free energy” value is -0.37 kcal/mol.

Turning to TTATTCACGTGGTCGA, the “relative binding free energy” value is 0.12 kcal/mol.

As for ATGGACACGTGAGTGG, the “relative binding free energy” value worked out at 0.11 kcal/mol.

TGCGGCACGTGTTCTG: the “relative binding free energy” value is -0.07 kcal/mol.

Turning to CATTGCACGTGCGTTT, the “relative binding free energy” value stood at 0.01 kcal/mol.

Regarding GTTATCACGTGTAGAT, the “relative binding free energy” value came to 0.13 kcal/mol.

AGTCGCACGTGGTAGT: the “relative binding free energy” value was -0.18 kcal/mol.

As to GGGGCCACGTGGAGCT, the “relative binding free energy” value was -0.05 kcal/mol.

Take ATTTTCACGTGTAATT: the “relative binding free energy” value was determined as 0.31 kcal/mol.

On to CTTATCACGTGATTTG, for which the “relative binding free energy” value is 0.28 kcal/mol.

For the sequence TTCTACACGTGTGTAT, the “relative binding free energy” value came to 0.13 kcal/mol.

As for TGGGTCACGTGTCTGC, the “relative binding free energy” value was 0.15 kcal/mol.

ATAATCACGTGTCGTA: the “relative binding free energy” value stood at 0.22 kcal/mol.

For TATACCACGTGTTGTT, the “relative binding free energy” value is -0.2 kcal/mol.

Regarding TCTTTCACGTGTTTCT, the “relative binding free energy” value stood at 0.23 kcal/mol.

With TGATTCACGTGACTGG, the “relative binding free energy” value worked out at 0.23 kcal/mol.

Take TTATACACGTGAAATG: the “relative binding free energy” value came out at 0.12 kcal/mol.

For the sequence GGCGGCACGTGCTTTT, the “relative binding free energy” value was 0.11 kcal/mol.

As to AAGGACACGTGGCGGG, the “relative binding free energy” value was found to be 0.06 kcal/mol.

Regarding CTTCTCACGTGGTTGT, the “relative binding free energy” value worked out at 0.17 kcal/mol.

With AGATTCACGTGTAGGG, the “relative binding free energy” value turned out to be 0.19 kcal/mol.

As for GTCTCCACGTGTGGGT, the “relative binding free energy” value is 0.08 kcal/mol.

For GGATTCACGTGGCATG, the “relative binding free energy” value was 0.29 kcal/mol.

For TGGTCCACGTGGTAGG, the “relative binding free energy” value was -0.04 kcal/mol.

As for CGTAGCACGTGTATTG, the “relative binding free energy” value is -0.16 kcal/mol.

As for TGGGACACGTGTATAA, the “relative binding free energy” value amounted to 0.14 kcal/mol.

Regarding ATATGCACGTGGGCTA, the “relative binding free energy” value was -0.32 kcal/mol.

TCGGACACGTGTGGAG: the “relative binding free energy” value worked out at 0.22 kcal/mol.

For AAAAGCACGTGAAGGG, the “relative binding free energy” value was found to be 0.31 kcal/mol.

In the case of ATATACACGTGTGGTA, the “relative binding free energy” value is -0.14 kcal/mol.

Take GTGTGCACGTGGTTAC: the “relative binding free energy” value turned out to be 0.05 kcal/mol.

These data come from the BET-seq Pho4 binding data (Le et al. 2018).
